Test results: PubChem BioAssay AID1457 (National Center for Advancing Translational Sciences (NCATS), 2008)
The whole screen tested about 210,000 compounds, of which about 730 (0.35%) were called active. The inconclusive results got no clear call from the source; some entries with a clear call stand among them for comparison. Calls come from the whole dose curve; as a rule, active = well fitted inhibition curve with a large enough effect; inconclusive = small, poorly fitted or top-dose-only effect; inactive = no such curve, though single readings can be large or run the other way. Potencies beside an inconclusive call are fits to weak or partial responses and may not hold up. Where a structure was tested more than once in an assay, its records may differ in their call.
Potency is the fitted concentration of half-maximal effect.

Assay: qHTS Assay for Identifying the Cell-Membrane Permeable IMPase Inhibitors: Potentiation with Lithium; note: nearly all actives have a fitted effect of over 50% in size;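 for activity, negative = IMPase inhibition: plate controls were basal vehicle for no effect and high inhibitor control for full effect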
Details: CHO-M1 cells, IP1 TR-FRET (IP-One), carbachol + lithium; series mostly up to 59.4 µM; activity, negative = IMPase inhibition: at the top concentration
Description: NIH Chemical Genomics Center [NCGC]
NIH Molecular Libraries Probe Production centers Network [MLPCN]
Assay Submitter (PI): Wei Zheng
Lithium has been widely used for the treatment of bipolar disorder. But lithium has a narrow therapeutic index and it can cause side effects such as thirst, weight gain, tremor, polyuria and memory problems. Although the mechanism for lithium action in treatment of bipolar disorder is still not fully understood, inhibition of inositol monophosphatase (IMPase) and the subsequent depletion of the inositol pool in living cells have been implicated as the primary therapeutic benefit of lithium therapy. Therefore, a selective IMPase inhibitor with reduced side effects might be a good drug candidate to replace lithium for the treatment of bipolar disorder. Several IMPase inhibitors have been discovered previously. However, they are not suitable for therapeutic use because of their poor cell membrane penetrability or oral bioavailability; the development of new cell-permeable IMPase inhibitors is needed.
IMPase catalyzes the hydrolysis of inositol-1-phosphate (IP1) to release free inositol. Binding of an agonist to a Gq coupled GPCR results in the activation of PLC, which hydrolyzes the PIP2 to form inositol-1,4,5-trisphosphate (IP3) and diacyl glycerol (DAG). While DAG activates protein kinase C (PKC), IP3 triggers the elevation of intracellular free Ca2+. The IP3 is very rapidly inactivated by hydrolysis to IP2, IP1 and then inositol by a series of enzymes including IMPase. Free inositols are used for synthesis of PI and thus start another inositol cycle.
To identify new cell-permeable IMPase inhibitors, we developed a cell-based IMPase assay in which the cytosolic IP1 is measured by a time-resolved fluorescence resonance energy transfer (TR-FRET) assay. In this assay, an IP1 specific antibody is used to detect the labeled IP1 tracer. When the cell lysate contains the elevated IP1 due to the inhibition of IMPase, the TR-FRET between the labeled antibody and IP1 tracer is disrupted resulting in a reduction in the total signal. Since the TR-FRET is used, this cell-based assay is a homogenous assay without cell wash and medium change that is suitable for assay miniaturization and HTS. In this particular assay, a small amount of lithium is added to potentiate the response of weak activators.
NCGC Assay Protocol Summary:
A Chinese hamster ovary (CHO) cell line stably expressing the M1 receptor (CHO-M1) was obtained from ATCC and maintained in F-12 Kaighn's media (Invitrogen, Carlsbad, CA) supplemented with 10 % FBS, 100 units/ml penicillin, 100 ug/ml streptomycin and 250 ug/ml geneticin at 37C, 5% CO2 in a humidified atmosphere. Before the assay, aliquots of cells were frozen and stored at -135C. The assay was performed in 1536-well format. Data are reported for both the ratio of the two emission wavelengths, and also for the component 'donor' channel, Em2=620. […] AC50 values were determined from concentration-response data modeled with the standard Hill equation.
(1) Frozen CHO-M1 cells were thaw, washed once with fresh media and resuspended in F12K media containing 10% FBS, 100 units/ml penicillin and 100 ug/ml streptomycin. Cells were plated at 4ul/well (2000 cells) in white, tissue culture treated 1536-well plates, and then cultured at 37C, 5 % CO2 for 16 to 30 hours.
(2) Add 23 nl/well of compound in DMSO solution. The final titration for each compound was between 0.6 nM and 46 uM.
(4) Incubation at 37C, 5 % CO2 for 30 min.
(5) Add 1 ul/well of d2-conjugated IP1 (d2-IP1) and 1 ul/well of Eu+ cryptate conjugated anti-IP1 antibody (Eu+-Ab) prepared in the cell lysis buffer, both from the IP-One kit (Cisbio, MA).
(6) Incubate at room temperature for 10 minutes.
(7) Detect the assay plate (Ex = 320, Em1 =665 and Em2 620) in a ViewLux plate reader.
In the case of `CCOC(=O)C(C)Oc1cc(C)cc2oc(=O)c3c(c12)CCCC3` (stereo not given), the Potency was inconclusive: 28.2 µM [inhibitor, single point]. With `COc1ccc(OC)c(N2C(=O)NC(=O)C3(Cc4cc(C)ccc4N(C)C3)C2=O)c1` (stereo not given) the “activity, negative = IMPase inhibition” value was inactive: 1.53% [at 38.3 µM]. With `CN1CCC(C)(O)C2CCCCC21` (stereo not given) the Potency was inconclusive: 5.01 µM [inhibitor, single point]. For `CC(C)c1ccc(C2N3CCCN23)cc1` (stereo not given), the “activity, negative = IMPase inhibition” value was inactive: -13.2%. In the case of `CC(=O)OC[C@H](N)C(=O)c1ccccc1`, the Potency was inconclusive: 28.2 µM [inhibitor, single point]. In the case of `CC(N)Cc1c[nH]c2cc3c(cc12)OCCO3` (stereo not given), the “activity, negative = IMPase inhibition” value was inactive: 23.7% [at 38.3 µM]. For `CCCN(CCC)CCc1ccc(O)c(O)c1`, the Potency was “inactive”. For `O=c1[nH]c(=S)n(C2CC2)c(O)c1C=Nc1cccc(C(F)(F)F)c1`, the Potency was inconclusive: 22.4 µM [inhibitor, single point]. With `CC(C)C[C@H](NC(=O)[C@H](Cc1ccccc1)NC(=O)CNC(=O)[C@@H](NC(=O)[C@@H](N)Cc1ccc(O)cc1)[C@H](C)O)C(=O)N[C@H](C(=O)O)[C@H](C)O` the “activity, negative = IMPase inhibition” value was inactive: 9.8%. For `COc1ccc(/C=C2\C(=O)NC(=S)N(C)C2=O)cc1C`, the “activity, negative = IMPase inhibition” value was inactive: 8.15%. With `O=c1cccc2n1CC1CC2CN(CCO)C1` (stereo not given) the “activity, negative = IMPase inhibition” value was inactive: 6.33%. For `COCCCn1c(N)c(C(=O)Nc2sc3c(c2C(=O)OC)CCCC3)c2nc3ccccc3nc21`, the Potency was inconclusive: 3.16 µM [inhibitor, full curve, poor fit]. For `Cc1ccc(Oc2cnn(-c3ccccc3)c(=O)c2Br)cc1`, the Potency was inconclusive: 11.2 µM [inhibitor, single point]. With `CN(C)C1C(=O)C(C(N)=O)C(=O)C2(O)C(=O)C3C(=O)c4c(O)cccc4C(C)(O)C3C(O)C12` (stereo not given) the Potency was inconclusive: 15.8 µM [inhibitor, partial curve]. With `Cc1nc2ccccc2c(=O)n1-c1ccccn1` the Potency was inconclusive: 11.2 µM [inhibitor, partial curve, poor fit]. In the case of `Cc1ccccc1-n1c(-c2ccc([N+](=O)[O-])cc2)nc2ccccc2c1=O`, the “activity, negative = IMPase inhibition” value was inactive: 19%. For `O=c1c2cc(N3CCOCC3)ccc2[nH]c(=S)n1Cc1ccc(Cl)cc1`, the Potency was inconclusive: 22.4 µM [inhibitor, single point]. For `Cn1c2ccccc2c2cnn(CC(=O)N3CCC4(CC3)OCCO4)c(=O)c21`, the Potency was inconclusive: 3.55 µM [inhibitor, full curve, poor fit]. For `Cc1oc(-c2ccc(F)cc2F)nc1CN1C[C@@H]2C[C@@H](C1)c1cccc(=O)n1C2`, the Potency was inconclusive: 11.2 µM [inhibitor, single point]. With `NC(=S)N/N=C/c1coc2ccccc2c1=O` the “activity, negative = IMPase inhibition” value was inactive: 9.84%. For `COc1ccc2c3c([nH]c2c1)C(C)=NCC3`, the Potency was inconclusive: 10 µM [inhibitor, partial curve]. In the case of `C#CCN1C(C)=C(C(=O)CCO)[C@@H](c2cccc(-n3oo3)c2)C(C(=O)OC)=C1C`, the “activity, negative = IMPase inhibition” value was inactive: 35.3%. For `CCn1cc(C(=O)O)c(=O)c2cc3c(cc21)OCO3`, the Potency was active: 7.94 µM. For `O=C(CSc1nnc2c3c4c(sc3ncn12)CCCC4)NCc1ccco1`, the Potency was inconclusive: 28.2 µM [inhibitor, single point]. For `O=c1c2ccccc2nc(CSc2ncnc3nc[nH]c23)n1-c1ccccc1`, the Potency was inconclusive: 12.6 µM [inhibitor, single point]. With `O=C1NC(=O)N(c2ccccc2F)C(=O)/C1=C/c1ccc(Sc2nc3ccccc3[nH]2)o1` the Potency was inconclusive: 11.2 µM [inhibitor, single point]. For `O=C(c1ccc(N2CC3CC(C2)c2cccc(=O)n2C3)c([N+](=O)[O-])c1)N1CCCC1` (stereo not given), the Potency was inconclusive: 2.24 µM [inhibitor, single point]. For `O=C1NC(=O)N(c2ccc3c(c2)OCO3)C(=O)/C1=C/c1ccc(N2CCCC2)o1`, the “activity, negative = IMPase inhibition” value was inactive: 6.06%. With `COC(=O)C[C@]1(C(=O)OC)CN(C#N)N(c2ccc(Cl)cc2)C12c1ccccc1-c1ccccc12` the “activity, negative = IMPase inhibition” value was inactive: 10.8%. With `CCOC(=O)c1c(NS(=O)(=O)c2ccccc2)n(CCCOC)c2nc3ccccc3nc12` the Potency was inconclusive: 11.2 µM [inhibitor, partial curve]. For `O=C(c1cccn2c(=O)c3ccc(Cl)cc3nc12)N1CCC2(CC1)OCCO2`, the Potency was inconclusive: 31.6 µM [inhibitor, partial curve]. For `C=CCOCC1CO1` (stereo not given), the Potency was inconclusive: 14.1 µM [inhibitor, partial curve]. For `COC(=O)c1ccccc1N=Cc1c(O)[nH]c(=S)[nH]c1=O`, the Potency was active: 11.2 µM. In the case of `Cc1c(N=Nc2c(O)[nH]c(=S)[nH]c2=O)c(=O)n(-c2ccccc2)n1C`, the “activity, negative = IMPase inhibition” value was inactive: 18.8%. With `CN1CCc2nc(SCC(=O)OC(C)(C)C)c(C#N)cc2C1` the Potency was inconclusive: 12.6 µM [inhibitor, single point]. With `Cc1cc(N2C(=O)CC(N3CCC(n4c(=O)[nH]c5ccccc54)CC3)C2=O)no1` (stereo not given) the “activity, negative = IMPase inhibition” value was inactive: 15.3% [at 38.3 µM]. In the case of `CC1=CC(c2ccccc2)NC(=S)N1` (stereo not given), the Potency was inconclusive: 22.4 µM [inhibitor, single point]. For `O=C1/C(=C\c2cc3c(cc2Br)OCO3)N2CCC1CC2`, the “activity, negative = IMPase inhibition” value was inactive: 18%. In the case of `COc1cc2[nH]c(=S)n(-c3ccccc3)c(=O)c2cc1OC`, the Potency was inconclusive: 28.2 µM [inhibitor, single point]. With `O=C1NC(=O)C(=Cc2cn(CCOc3ccc4c(c3)OCO4)c3ccccc23)C(=O)N1` the Potency was inconclusive: 28.2 µM [inhibitor, single point]. For `CC1(C)[C@@H]2CC[C@]1(C)CN(CCC[N+](C)(C)C)C2`, the “activity, negative = IMPase inhibition” value was inactive: 2.02%. For `CC(=O)OC1N=C(c2ccccc2)c2cc(Br)ccc2NC1=O` (stereo not given), the Potency was inconclusive: 31.6 µM [inhibitor, single point]. With `CN(C)c1ccc(N=Nc2ccccc2)cc1` the “activity, negative = IMPase inhibition” value was inactive: 5.74%. For `O=c1oc2ccccc2c(O)c1C(c1ccccc1O)c1c(O)c2ccccc2oc1=O`, the Potency was active: 10 µM. For `COc1ccccc1CN1CCN(Cc2ccc(Cl)cc2)CC1`, the “activity, negative = IMPase inhibition” value was inactive: 11%.
